Test results: the antibiotic and cytotoxicity screens of Wong et al. (2023)
Some of the results follow.

test system: S. aureus RN4220; test: growth inhibition call (relative growth <= 0.2); conditions: 50 µM

Growth inhibition call, inactive:
C[C@@H]1CN([C@@H](C)CO)C(=O)c2cc(C#CCN(C)C)cnc2O[C@@H]1CN(C)C(=O)c1ccc2c(c1)OCO2
COc1ccc(CN(C)C[C@@H]2OCCCC[C@H](C)Oc3ccc(NS(=O)(=O)c4ccc(OC)cc4)cc3C(=O)N([C@H](C)CO)C[C@H]2C)cc1
C[C@H]1CN([C@@H](C)CO)C(=O)c2cc(NC(=O)CCCCCC(=O)Nc3ccccc3N)ccc2O[C@@H]1CN(C)C(=O)Nc1ccc(F)cc1
C[C@H](CO)N1C[C@H](C)[C@@H](CN(C)C)OCCCC[C@H](C)Oc2ccc(NC(=O)CCCN(C)C)cc2C1=O
C[C@@H]1CN([C@H](C)CO)C(=O)Cc2cc(NS(C)(=O)=O)ccc2O[C@H]1CN(C)Cc1ccc(C(=O)O)cc1
